Assay results from PubChem BioAssay AID1461 (National Center for Advancing Translational Sciences (NCATS), 2008).
Hit rate of the full screen: of about 220,000 compounds, about 2,300 (1%) were called active. This list was built around the results that the source calls inconclusive (neither active nor inactive); the mix of calls is not that of the screen. Calls follow the shape of the dose curve; as a rule, active = well fitted inhibition curve with a large enough effect; inconclusive = small, poorly fitted or top-dose-only effect, or effect the other way; inactive = no such curve, though single readings can be large or run the other way. Potencies of inconclusive entries are doubtful fits and often do not repeat.

Target: Neuropeptide S receptor (Homo sapiens) (UniProt Q6W5P4)
Test: qHTS Assay for Antagonists of the Neuropeptide S Receptor: cAMP Signal Transduction; also: nearly all actives have a fitted effect of over 50% in size
Settings: CHO-NPSR cells, cAMP TR-FRET, antagonist mode; activity change, negative = inhibition: at 38.3 µM (top of the series) unless noted
% is scaled to controls: 0 for no effect and ±100 for the full control effect; potency is read from the fitted curve at half-maximal effect; tags tell the direction and shape of the fitted curve.

Sequence of UniProt Q6W5P4 (Q6W5P4 whole entry, looked up): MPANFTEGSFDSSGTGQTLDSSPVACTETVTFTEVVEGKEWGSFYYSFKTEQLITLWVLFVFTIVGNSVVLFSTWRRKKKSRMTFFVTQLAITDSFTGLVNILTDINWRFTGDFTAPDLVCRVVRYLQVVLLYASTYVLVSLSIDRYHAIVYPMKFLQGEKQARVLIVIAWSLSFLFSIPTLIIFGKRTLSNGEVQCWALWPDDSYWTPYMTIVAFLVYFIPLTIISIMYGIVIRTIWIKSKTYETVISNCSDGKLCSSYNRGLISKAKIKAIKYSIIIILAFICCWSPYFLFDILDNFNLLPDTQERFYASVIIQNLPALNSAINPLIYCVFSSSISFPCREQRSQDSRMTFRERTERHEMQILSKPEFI

SMILES	Potency	activity change, negative = inhibition
Cc1[nH]c2ccc3c(ncn3CCC#N)c2c1C	inconclusive: 12.6 µM [inhibitor, single point]	
CC(C)(C)c1ccc(CN(Cc2ccco2)Cc2nnnn2C2CCCC2)cc1	inconclusive: 10 µM [inhibitor, partial curve]	
CCOC(=O)c1c(-c2ccc(C)o2)csc1NC(=O)CSc1nncs1	inconclusive: 10 µM [inhibitor, partial curve]	
CC(=O)NCCn1c(SCC#N)nc2ccccc2c1=O	inconclusive: 5.01 µM [inhibitor, single point]	
CCOC(=O)CC(=O)CSc1nc2sc(C)cc2c(=O)n1Cc1ccco1	inconclusive: 25.1 µM [inhibitor, single point]	
CCOc1ccccc1NC(=S)N1C2CCC1CC(NC(=O)NC13CC4CC(CC(C4)C1)C3)C2 (stereo not drawn)	inconclusive: 12.6 µM [inhibitor, single point]	
Cc1cc(C)cc(NC(=S)Nc2ccc(Cl)c(Cl)c2)c1	inactive	
S=C(NC1CC1)N1CCN(c2ccc(Cl)cc2)CC1	inactive	
O=C(NC1CCCCC1NC(=O)c1ccco1)c1ccco1 (stereo not drawn)	inactive	
Cc1ccccc1Nc1nn2c(=O)c3ccccc3nc2s1	inconclusive: 20 µM [inhibitor, partial curve]	
CCN(CC)c1nc2n(c(=S)n1)CCS2	inactive	
COc1ccccc1-n1cnc2sc(-c3ccccc3)cc2c1=O	inconclusive: 25.1 µM [inhibitor, single point]	
O=C(/C=C/c1cccc(C(F)(F)F)c1)Nc1cccc(C(F)(F)F)c1	inconclusive: 12.6 µM [inhibitor, single point]	
O=C(OCc1nnc(-c2ccccc2)o1)c1cc(S(=O)(=O)N2CCOCC2)c(Cl)cc1Cl	inconclusive: 12.6 µM [inhibitor, partial curve]	
CCn1ncc(CN2CCN(C(=O)Nc3ccccc3C(=O)OC)CC2)c1C	inactive	
CCCc1[nH]nc2c1C(/C(C)=C/c1ccccc1)C(C#N)=C(N)O2 (stereo not drawn)	inactive	
CCCC(C(=O)Nc1nccs1)c1ccccc1 (stereo not drawn)	inactive	
O=C(N/N=C/c1ccccn1)c1c[nH]c2ccccc12	inactive	
Cn1c(SCC(=O)Nc2sccc2C(N)=O)nnc1-c1ccncc1	inactive	
COc1ccc(-c2nc(C#N)c(N3CCc4ccccc4C3)o2)cc1OC	inconclusive: 10 µM [inhibitor, single point]	
O=C1c2ccsc2SCCN1Cc1c(Cl)cccc1Cl	inconclusive: 12.6 µM [inhibitor, single point]	
Clc1ccc(CNc2ccc(CNc3ncn[nH]3)cc2)c(Cl)c1	inactive	
CCOC(=O)c1ccc(S(=O)(=O)N2CCN(C3CCCC3)CC2)cc1	inactive	
S=C(Nc1ccc(Cl)cc1Cl)Nc1ccccc1Oc1ccccc1	inconclusive: 25.1 µM [inhibitor, single point]	

SMILES	Potency	activity change, negative = inhibition
FC(F)(F)c1cc(-c2ccccc2)nc(N2CCCCCC2)n1	inactive	
CCC(c1nnnn1C1CCCC1)N1CCN(c2ccccc2)CC1 (stereo not drawn)	inconclusive: 20 µM [inhibitor, single point]	
CCOC(=O)Cn1c(=S)[nH]c2c(oc3ccc(Cl)cc32)c1=O	inconclusive: 2 µM [activator, full curve]	
COc1ccc2[nH]c(=O)c(CN(Cc3cccs3)Cc3nnnn3Cc3ccccc3)cc2c1	inconclusive: 12.6 µM [inhibitor, partial curve]	
CC(=O)/C(=N\Nc1ccccc1)Sc1nnc(-c2ccccc2)n1-c1ccccc1		inconclusive: -32% [inhibitor] [at 46.1 µM]
COc1cc(NS(=O)(=O)c2ccc(NC(=O)c3ccc(C)o3)cc2)nc(OC)n1	inconclusive: 6.31 µM [inhibitor, partial curve, poor fit]	
CCSc1nnc(NC(=O)CSc2nnc(CNC(=O)c3ccc(OC)cc3)o2)s1	inconclusive: 25.1 µM [inhibitor, single point]	
O=C(c1ccco1)N1CCN(CC(O)Cn2c3ccccc3c3ccccc32)CC1 (stereo not drawn)	inconclusive: 25.1 µM [inhibitor, single point]	
O=C(CSc1ncnc2ccccc12)Nc1ccc2c(c1)OCO2	inactive	
C=CCn1c(N2CCCCCC2)nc2c1c(=O)n(C)c(=O)n2C	inconclusive: 10 µM [inhibitor, single point]	
Cc1ccc(-c2noc(CCC(=O)N3CCCc4ccccc43)n2)cc1	inconclusive: 12.6 µM [inhibitor, single point]	
CC(=O)C(Sc1nccc(-c2cccs2)n1)C(C)=O	inactive	
CCN(CC)P(=O)(Nc1ccc(C)cc1Br)c1ccc(N(C)C)cc1NC(=O)c1ccco1 (stereo not drawn)	active: 10 µM	
CCN1CCN(Cc2ccc(NC(=O)c3cc(NC(=O)c4cc(-c5ccc(OC)cc5)n[nH]4)cc(OC)c3)cc2C(F)(F)F)CC1	inconclusive: 12.6 µM [inhibitor, single point]	
CN(Cc1nccs1)C(=O)CC1C(=O)NCCN1Cc1ccc(-c2ccccc2)cc1 (stereo not drawn)	inactive	
Cn1c(=O)c2c(nc(CN3CCC(C(N)=O)CC3)n2CCCc2ccccc2)n(C)c1=O	inactive	
S=c1nc(C2CCCCC2)[nH][nH]1	inactive	
CN(C)c1ccc(/C=N/NC(=O)c2ccccn2)cc1	inconclusive: 12.6 µM [inhibitor, single point]	
Cc1ccc(CN2CCN(Cc3ccccc3C(F)(F)F)CC2)cc1	inconclusive: 12.6 µM [inhibitor, single point]	
Cc1cc(C(=O)Nc2ccc(S(=O)(=O)Nc3onc(C)c3C)cc2)c(C)o1	inactive	
Cc1cc(C)c2c(c1)/C(=N/NS(=O)(=O)c1ccc(Br)cc1)CCC2	inconclusive: 25.1 µM [inhibitor, single point]	
C/C(Cl)=C\Cn1c(O)c(N=NC(N)=S)c2cc(Br)ccc21	inconclusive: 15.8 µM [activator, single point]	
O=C1c2ccccc2C(Nc2ccc(F)c(Cl)c2)N1c1ccccn1 (stereo not drawn)	inconclusive: 10 µM [inhibitor, single point]	
Cc1cccc(N=Nc2c(C)nn(-c3ccccc3)c2N)c1C	inactive	
